One experiment concerns HSkMC. Description: cytotoxicity call (relative viability < 0.9). The settings on record: 10 µM.
Another experiment concerns HepG2. Description: cytotoxicity call (relative viability < 0.9). The note with it: 10 µM.
The subject of another experiment is S. aureus RN4220. Description: growth inhibition call (relative growth <= 0.2). The settings on record: 50 µM.

This is one part of the list.

Consider `CO[C@@H](CN(C)C(=O)Nc1ccc(C(F)(F)F)cc1)[C@H](C)CN(Cc1ccccc1Cl)[C@@H](C)CO`, for which the cytotoxicity call in the experiment on HSkMC and in the experiment on HepG2 was “inactive” each time. Also, the growth inhibition call in the experiment on S. aureus RN4220 is “inactive”.

As to `C[C@@H]1CN([C@@H](C)CO)C(=O)CCCn2cc(nn2)CO[C@@H]1CN(C)Cc1ccc2c(c1)OCCN2C`, the cytotoxicity call with HSkMC and with HepG2 was “inactive” each time. For the same molecule, the growth inhibition call in the experiment with S. aureus RN4220 was “inactive”.

Take `Cc1noc(C)c1NC(=O)N(C)C[C@@H]1Oc2ccc(NC(=O)Cn3cnnn3)cc2C(=O)N([C@@H](C)CO)C[C@@H]1C`: the cytotoxicity call in the experiment with HSkMC and in the experiment on HepG2 was “inactive” each time. The growth inhibition call in the experiment on S. aureus RN4220 is “inactive”.

For `C[C@@H]1CCCCO[C@@H](CN(C)C(=O)Nc2ccc(F)cc2)[C@H](C)CN([C@@H](C)CO)C(=O)c2cc(NC(=O)Nc3ccc(C(F)(F)F)cc3)ccc2O1`, the cytotoxicity call with HSkMC and with HepG2 was “inactive” each time. The growth inhibition call in the experiment on S. aureus RN4220 is “inactive”.

Consider `COCC(=O)N(C)C[C@H]1Oc2cc(C#CCN(C)C)ccc2S(=O)(=O)N([C@H](C)CO)C[C@H]1C`, for which the cytotoxicity call in the experiment on HSkMC and with HepG2 was “inactive” each time. Further, the growth inhibition call in the experiment on S. aureus RN4220 was “inactive”.

On to `CC(C)CNC(=O)[C@@]1(c2ccc([N+](=O)[O-])cc2)CC(=O)N(CC23CC4CC(CC(C4)C2)C3)[C@@H]1c1ccc(CO)cc1I`, for which the cytotoxicity call in the experiment on HSkMC and with HepG2 was “inactive” throughout. The growth inhibition call in the experiment with S. aureus RN4220 was “inactive”.

For the molecule `CS(=O)(=O)CCNCc1nc(-c2ccc3ncnc(Nc4ccc(OCc5cccc(F)c5)c(Cl)c4)c3c2)cs1`, the cytotoxicity call in the experiment with HSkMC is “active”. The cytotoxicity call in the experiment with HepG2 was “inactive”. Moreover, the growth inhibition call in the experiment with S. aureus RN4220 is “inactive”.

Turning to `C[C@@H]1CCCCO[C@H](CN(C)C(=O)Cc2ccccc2)[C@@H](C)CN([C@@H](C)CO)C(=O)c2cc(NC(=O)C3CCCCC3)ccc2O1`, the cytotoxicity call in the experiment on HSkMC and in the experiment on HepG2 was “inactive” throughout. Besides, the growth inhibition call in the experiment with S. aureus RN4220 was “inactive”.

In the case of `CC(C)CCCC(C)C1CCC2C3CCC4CC(=O)CCC4(C)C3CCC12C` (stereo unspecified), the cytotoxicity call in the experiment on HSkMC and in the experiment with HepG2 was “inactive” throughout. Also, in the experiment on S. aureus RN4220, the growth inhibition call was “inactive”.

Consider `COc1ccc(NC(=O)N(C)C[C@H]2Oc3cc(C#CCN(C)C)ccc3S(=O)(=O)N([C@H](C)CO)C[C@H]2C)cc1`, for which the cytotoxicity call in the experiment with HSkMC and in the experiment on HepG2 was “inactive” in each case. Also, in the experiment with S. aureus RN4220, the growth inhibition call was “inactive”.

As to `C[C@@H]1CCCCO[C@@H](CN(C)C(=O)C2CCCCC2)[C@H](C)CN([C@@H](C)CO)C(=O)c2cc(NC(=O)CCC(F)(F)F)ccc2O1`, the cytotoxicity call with HSkMC and in the experiment on HepG2 was “inactive” each time. In addition, in the experiment with S. aureus RN4220, the growth inhibition call was “inactive”.

`Cc1nnnn1CC(=O)Nc1ccc(F)cc1`: the cytotoxicity call with HSkMC and with HepG2 was “inactive” in each case. The growth inhibition call in the experiment with S. aureus RN4220 is “inactive”.

For the molecule `C[C@H]1CN([C@@H](C)CO)C(=O)Cc2cc(NC(=O)CCC(F)(F)F)ccc2O[C@H]1CN(C)Cc1ccc(Oc2ccccc2)cc1`, the cytotoxicity call in the experiment on HSkMC and in the experiment with HepG2 was “inactive” throughout. Further, the growth inhibition call in the experiment on S. aureus RN4220 is “inactive”.

`C[C@@H]1CCCCO[C@H](CN(C)S(=O)(=O)c2ccccc2)[C@@H](C)CN([C@@H](C)CO)C(=O)c2cc(NC(=O)C3CCCCC3)ccc2O1`: the cytotoxicity call in the experiment on HSkMC and in the experiment with HepG2 was “inactive” in each case. The growth inhibition call with S. aureus RN4220 is “inactive”.

For `Cc1noc(C)c1S(=O)(=O)N(C)C[C@@H]1OCCCC[C@H](C)Oc2ccc(NS(=O)(=O)c3cn(C)cn3)cc2C(=O)N([C@H](C)CO)C[C@@H]1C`, the cytotoxicity call with HSkMC and in the experiment on HepG2 was “inactive” in each case. Further, the growth inhibition call in the experiment with S. aureus RN4220 is “inactive”.

Consider `O=C(C[C@@H]1C[C@H]2c3cc(NS(=O)(=O)c4ccc(F)cc4)ccc3O[C@H]2[C@H](CO)O1)NC1CCCC1`, for which the cytotoxicity call with HSkMC and with HepG2 was “inactive” each time. Moreover, the growth inhibition call in the experiment on S. aureus RN4220 was “inactive”.

On to `C[C@@H]1CN([C@H](C)CO)C(=O)c2cccc(NC(=O)Nc3ccc(C(F)(F)F)cc3)c2O[C@@H]1CN(C)Cc1ccc(C(=O)O)cc1`, for which the cytotoxicity call in the experiment on HSkMC and with HepG2 was “inactive” in each case. Also, the growth inhibition call in the experiment on S. aureus RN4220 is “inactive”.

As for `CO[C@H]1CN(C)C(=O)c2cc(NS(=O)(=O)CC(F)(F)F)ccc2OC[C@@H](C)N(Cc2nccs2)C[C@H]1C`, the cytotoxicity call in the experiment on HSkMC and in the experiment on HepG2 was “inactive” throughout. Further, in the experiment with S. aureus RN4220, the growth inhibition call was “inactive”.

Take `C[C@H](CO)N1C[C@H](C)[C@@H](CN(C)Cc2ccc(Oc3ccccc3)cc2)Oc2ccc(NC(=O)Cn3cnnn3)cc2C1=O`: the cytotoxicity call in the experiment with HSkMC and with HepG2 was “inactive” throughout. In addition, in the experiment on S. aureus RN4220, the growth inhibition call was “inactive”.

In the case of `O=C(C[C@H]1C[C@@H]2c3cc(NS(=O)(=O)c4ccc(F)cc4)ccc3O[C@@H]2[C@@H](CO)O1)NCc1cccnc1`, the cytotoxicity call in the experiment with HSkMC and in the experiment on HepG2 was “inactive” in each case. Further, the growth inhibition call in the experiment with S. aureus RN4220 is “inactive”.

Take `C[C@@H]1CCCCO[C@H](CN(C)Cc2ccc3c(c2)OCO3)[C@@H](C)CN([C@@H](C)CO)C(=O)c2cc(NC(=O)Nc3ccc(F)cc3)ccc2O1`: in the experiment on HSkMC (human skeletal muscle cells), the cytotoxicity call was “inactive”. In addition, in the experiment with HepG2, the cytotoxicity call was “active”. In addition, the growth inhibition call in the experiment on S. aureus RN4220 is “inactive”.

On to `C[C@@H]1CCCCO[C@@H](CN(C)Cc2ccccc2)[C@H](C)CN([C@H](C)CO)C(=O)c2cc(NC(=O)Nc3cccc4ccccc34)ccc2O1`, for which the cytotoxicity call in the experiment with HSkMC and in the experiment with HepG2 was “inactive” in each case. Further, the growth inhibition call with S. aureus RN4220 was “inactive”.

Regarding `COc1ccc(S(=O)(=O)N(C)C[C@@H]2OCCCC[C@@H](C)Oc3ccc(NC(=O)Nc4c(C)noc4C)cc3C(=O)N([C@@H](C)CO)C[C@H]2C)cc1`, the cytotoxicity call with HSkMC and in the experiment on HepG2 was “inactive” throughout. In the experiment on S. aureus RN4220, the growth inhibition call was “inactive”.

With `C[C@H](CO)N1C[C@H](C)[C@H](CN(C)S(=O)(=O)c2ccccc2C#N)OCc2cn(nn2)CCCC1=O`, the cytotoxicity call in the experiment with HSkMC and with HepG2 was “inactive” throughout. In addition, the growth inhibition call in the experiment on S. aureus RN4220 is “inactive”.

Take `COCC#Cc1cnc2c(c1)C(=O)N([C@@H](C)CO)C[C@@H](C)[C@@H](CN(C)C(=O)CN1CCOCC1)O2`: the cytotoxicity call in the experiment with HSkMC and with HepG2 was “inactive” each time. For the same molecule, in the experiment on S. aureus RN4220, the growth inhibition call was “inactive”.

Turning to `C[C@@H]1CN([C@@H](C)CO)S(=O)(=O)c2ccc(C#Cc3ccc(F)cc3)cc2O[C@H]1CN(C)C(=O)c1ccccn1`, the cytotoxicity call in the experiment with HSkMC and with HepG2 was “inactive” in each case. Besides, the growth inhibition call with S. aureus RN4220 is “inactive”.

`C[C@H]1CCCCO[C@H](CN(C)C(=O)NC2CCCCC2)[C@@H](C)CN([C@@H](C)CO)C(=O)c2cc(NC(=O)c3ccccc3)ccc2O1`: the cytotoxicity call with HSkMC and in the experiment with HepG2 was “inactive” each time. Further, the growth inhibition call with S. aureus RN4220 was “inactive”.
